From PubChem BioAssay AID504339 (National Center for Advancing Translational Sciences (NCATS), 2011)
Screen size: about 390,000 compounds; about 17,000 (4.4%) were called active. Inconclusive results, whose numbers are uncertain, are shown with a selection of clear calls. Calls follow the shape of the dose curve; as a rule, active = well fitted inhibition curve with a large enough effect; inconclusive = small, poorly fitted or top-dose-only effect; inactive = no such curve, though single readings can be large or run the other way. A potency beside an inconclusive call is a rough fit, not a confirmed value.

The compounds below were run against Lysine-specific demethylase 4A (Homo sapiens) (UniProt O75164) (assay: qHTS Assay for Inhibitors of JMJD2A-Tudor Domain). Conditions: AlphaScreen JMJD2A-Tudor / H3K4me3 peptide binding; series mostly up to 114 µM.
UniProt O75164, sequence (O75164 whole entry, looked up, the tested form may be a part): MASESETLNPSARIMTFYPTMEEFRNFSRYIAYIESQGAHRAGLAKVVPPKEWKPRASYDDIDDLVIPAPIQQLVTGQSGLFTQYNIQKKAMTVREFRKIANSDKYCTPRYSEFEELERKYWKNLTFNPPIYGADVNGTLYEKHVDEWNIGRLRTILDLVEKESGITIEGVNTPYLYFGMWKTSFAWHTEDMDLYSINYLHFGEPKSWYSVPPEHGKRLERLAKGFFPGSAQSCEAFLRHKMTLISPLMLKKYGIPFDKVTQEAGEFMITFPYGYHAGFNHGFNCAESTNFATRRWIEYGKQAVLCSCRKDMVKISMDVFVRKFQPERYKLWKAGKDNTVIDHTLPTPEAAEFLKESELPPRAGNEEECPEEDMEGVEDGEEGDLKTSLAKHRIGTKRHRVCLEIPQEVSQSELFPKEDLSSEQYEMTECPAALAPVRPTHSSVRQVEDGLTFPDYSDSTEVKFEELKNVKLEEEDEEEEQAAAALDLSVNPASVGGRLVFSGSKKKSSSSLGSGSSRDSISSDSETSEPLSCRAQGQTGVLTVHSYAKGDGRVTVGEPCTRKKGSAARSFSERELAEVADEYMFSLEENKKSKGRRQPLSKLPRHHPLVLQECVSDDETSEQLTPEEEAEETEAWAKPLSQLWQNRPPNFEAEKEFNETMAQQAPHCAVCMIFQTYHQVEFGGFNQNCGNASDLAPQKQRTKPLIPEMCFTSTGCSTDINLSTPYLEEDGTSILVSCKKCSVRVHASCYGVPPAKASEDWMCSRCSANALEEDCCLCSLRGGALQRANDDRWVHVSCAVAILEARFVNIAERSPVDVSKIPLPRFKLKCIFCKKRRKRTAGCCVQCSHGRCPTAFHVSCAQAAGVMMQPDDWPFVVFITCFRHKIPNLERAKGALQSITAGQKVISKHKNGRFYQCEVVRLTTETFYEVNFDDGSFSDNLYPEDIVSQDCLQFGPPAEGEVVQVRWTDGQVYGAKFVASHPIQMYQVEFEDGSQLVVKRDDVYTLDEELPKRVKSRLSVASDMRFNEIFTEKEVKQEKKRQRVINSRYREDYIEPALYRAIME
Also: nearly all actives have a fitted effect of over 50% in size.
Potency is read from the fitted curve at half-maximal effect; tags tell the direction and shape of the fitted curve.

Compound	Potency
CCOC(=O)c1c(-c2ccccc2)csc1NC(=O)c1nc(S(=O)(=O)CC)ncc1Cl	inconclusive: 39.8 µM [inhibitor, partial curve]
O=C(N/N=C/c1ccccn1)c1ccc2nc[nH]c2c1	inconclusive: 50.1 µM [inhibitor, partial curve, poor fit]
COc1ccc(CCNC(=O)COC(=O)C23CC4CC(CC(Br)(C4)C2)C3)cc1	inactive
COc1ccccc1Cn1ccn(Cc2c(F)cccc2Cl)c(=O)c1=O	inactive
COc1ccccc1CNC(=O)COC(=O)CNS(=O)(=O)c1ccc(C)cc1	inactive
Cc1cccc(C(=O)Nc2cccc(C(=O)N3CCOCC3)c2)c1	inactive
CC1=C(C(=O)Nc2ccccc2C)C(c2ccc(C)o2)N2C(=O)CSC2=N1 (centres undefined)	inconclusive: 31.6 µM [inhibitor, partial curve]
CC(=O)Nc1ccc(S(=O)(=O)Nc2nc(-c3ccc(C(C)(C)C)cc3)cs2)cc1	inconclusive: 56.2 µM [inhibitor, partial curve, poor fit]
CC(C)C(C(=O)OCC(=O)c1ccc2c(c1)NC(=O)CO2)N1C(=O)c2ccccc2C1=O (centres undefined)	inconclusive: 89.1 µM [inhibitor, single point]
O=C(Nc1ccccc1Cl)NC1(C(=O)NCCCN2CCOCC2)CCCCC1	inactive
C=Cc1ccc(CSc2nnc(C)n3c2cc2occc23)cc1	inconclusive: 17.8 µM [inhibitor, full curve]
COc1ccc(NS(=O)(=O)c2ccc3c(c2)CC(C)N3C(C)=O)c(OC)c1 (centres undefined)	inactive
CCOC(=O)C1=C(CN2CCN(c3cccc(OC)c3)CC2)NC(=O)NC1c1ccc(OC)cc1 (centres undefined)	inconclusive: 50.1 µM [inhibitor, partial curve]
CC(=NCCCn1ccnc1)c1c(-c2ccccc2)[nH]n(-c2nc3ccccc3s2)c1=O	inconclusive: 56.2 µM [inhibitor, partial curve]
Cc1c(C(=O)Nc2ccc(F)c(F)c2)oc2ccc(S(=O)(=O)N(C)C3CCCCC3)cc12	inactive
Cc1ccc(N(C)C(=O)Cn2cc(S(=O)(=O)N3CCCC3)c(S(=O)(=O)N3CCCC3)c2)cc1	inactive
COc1ccc(S(=O)NC2CCCCC2)c(OC)c1C (centres undefined)	inconclusive: 89.1 µM [inhibitor, partial curve]
CC[C@H]1C/C=C\Cc2ccccc2[C@@H](C(=O)C[C@@H](O)CC(C)=O)OC1=O	inactive
COc1ccc(/C=C2\SC(=S)N(CCC(=O)NCCCN3CCOCC3)C2=O)cc1	inconclusive: 56.2 µM [inhibitor, partial curve]
C=CC[n+]1c(C)csc1Nc1cccc(Br)c1	inconclusive: 20 µM [inhibitor, full curve, poor fit]
Cc1cc(C)cc(NC(=O)CCS(=O)(=O)c2ccc3nc(C)sc3c2)c1	inactive
O=C1C(c2ccc(F)cc2)N(Cc2ccccc2Cl)C(=O)CN1C1CCCCC1 (centres undefined)	inactive

Compound	Potency
CCOc1ccc(-c2nn(-c3ccccc3)cc2C2NC(=O)NC(C)=C2C(=O)OC(C)C)cc1C (centres undefined)	inconclusive: 35.5 µM [inhibitor, partial curve]
C=C1C(C(=O)N2CCN(C)CC2)C1C(=O)N1CCN(C)CC1 (centres undefined)	inactive
O=c1ccc(-c2ccc([N+](=O)[O-])cc2)nn1-c1ccccc1	inactive
CCCCCC(=O)N=Nc1c(O)[nH]c2ccc([N+](=O)[O-])cc12	inconclusive: 89.1 µM [inhibitor, partial curve]
COCCN(Cc1ccc(C)c(Br)c1)C(=O)Cn1cnc(S(=O)(=O)N2CCCC2)c1	inconclusive: 17.8 µM [inhibitor, full curve]
Cc1cc(/C=C2\Sc3ccccc3N2C)cc(C)[n+]1CC1CCCO1 (centres undefined)	inconclusive: 56.2 µM [inhibitor, partial curve, poor fit]
O=C(NCCCn1ccnc1)c1ccc(-c2cccc(Cl)c2Cl)o1	inconclusive: 44.7 µM [inhibitor, partial curve]
COc1cc(/C=N/N2CCN(C3c4ccccc4-c4ccccc43)CC2)cc(OC)c1OC	inconclusive: 31.6 µM [inhibitor, partial curve]
CCOC(=O)C1CCN(Cc2ccc(F)cc2)CC1	active: 3.98 µM
CCOc1cc(/C=C(\C#N)C(=O)Nc2ccccn2)ccc1O	inactive
O=C(NCCCN1CCN(c2ccc(F)cc2)CC1)c1sc2ncccc2c1-n1cccc1	inconclusive: 44.7 µM [inhibitor, partial curve]
CCCC(=NCCc1c(C)[nH]c2ccccc12)C1=C(O)CC(c2ccccc2)CC1=O (centres undefined)	inconclusive: 5.01 µM [inhibitor, full curve]
CCCCN(C)CCCNC(=O)c1cc(Nc2ccc(OC)c(OC)c2)nc2ccccc12	inconclusive: 28.2 µM [inhibitor, full curve]
O=C1NC[C@H](Cc2ccccc2)N(C[C@H]2CCCN2C[C@H](Cc2ccccc2)N2C[C@H](Cc3ccc(O)cc3)N(CCc3ccccc3)C(=O)C2=O)C1=O	inactive
Cc1cc(=S)c2ccccc2[nH]1	inconclusive: 20 µM [inhibitor, single point]
O=C1C2C3C=CC(C4CC34)C2C(=O)N1c1ccc2c(c1)OCO2 (centres undefined)	inactive
Cc1cc(C(=O)O)ccc1-c1ccc(/C=C2\NC(=O)N(Cc3ccc(F)cc3)C2=O)o1	inconclusive: 89.1 µM [inhibitor, single point]
COc1cc(C(C)=O)ccc1OCC(=O)Nc1ccccc1N1CCCC1	inconclusive: 56.2 µM [inhibitor, partial curve]
CCCNC(=S)Nc1ccc(Nc2ccccc2)cc1	inconclusive: 44.7 µM [inhibitor, partial curve]
CC1=CSC2=NC(=O)/C(=C\c3cccn3-c3ccc([N+](=O)[O-])cc3)C(=N)N12	inconclusive: 56.2 µM [inhibitor, partial curve]
COc1cc(CNc2ccc3c(c2)ncn3C(C)C)cc(OC)c1OC	inactive
CCOC(=O)CCCNC(=O)CSc1nc2ccc(OCC)cc2[nH]1	inactive
